Source: the supplement of paper PMC8728848
The list shows a part of the results.

What was measured:
Assay in all cases: glycan array binding signal (z-score within array); higher = stronger binding
Settings in all cases: glycan notation: IUPAC condensed, linker removed
[1] = target: Fuc(a1-2)Gal(b1-4)GlcNAc(b1-3)Gal(b1-4)GlcNAc(b1-3)Gal(b1-4)GlcNAc
Summary of the method: (§1)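 Glycan array binding is given as a within-array Z-score, which can be read as non-binding when negative. The arrays, 3228 of them, came from the Consortium for Functional Glycomics database and were retained only where the protein sequence was available. Z-scores were averaged across arrays of the same protein sequence at different concentrations or buffers and across linkers.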

[2] = target: Fuc(a1-2)Gal(b1-4)GlcNAc(b1-3)GalNAc
Summary of the method: as §1

[3] = target: Fuc(a1-2)Gal(b1-4)GlcNAc(b1-3)[Fuc(a1-2)Gal(b1-4)GlcNAc(b1-6)]GalNAc
Summary of the method: as §1

[4] = target: Fuc(a1-2)Gal(b1-4)GlcNAc(b1-3)[Fuc(a1-3)[Gal(b1-4)]GlcNAc(b1-6)]Gal(b1-4)Glc
Summary of the method: as §1

[5] = target: Fuc(a1-2)Gal(b1-4)GlcNAc(b1-6)GalNAc
Summary of the method: as §1

[6] = target: Fuc(a1-2)Gal(b1-4)GlcNAc6S
Summary of the method: as §1

[7] = target: Fuc(a1-2)Gal(b1-4)[Fuc(a1-3)]GlcNAc
Summary of the method: as §1

[8] = target: Fuc(a1-2)Gal(b1-4)[Fuc(a1-3)]GlcNAc(b1-2)Man(a1-3)[Fuc(a1-2)Gal(b1-4)[Fuc(a1-3)]GlcNAc(b1-2)Man(a1-6)]Man(b1-4)GlcNAc(b1-4)[Fuc(a1-6)]GlcNAc
Summary of the method: as §1

[9] = target: Fuc(a1-2)Gal(b1-4)[Fuc(a1-3)]GlcNAc(b1-2)[Fuc(a1-2)Gal(b1-4)[Fuc(a1-3)]GlcNAc(b1-4)]Man(a1-3)[Fuc(a1-2)Gal(b1-4)[Fuc(a1-3)]GlcNAc(b1-2)Man(a1-6)]Man(b1-4)GlcNAc(b1-4)GlcNAc
Summary of the method: as §1

[10] = target: Fuc(a1-2)Gal(b1-4)[Fuc(a1-3)]GlcNAc(b1-3)Gal(b1-4)[Fuc(a1-3)]GlcNAc
Summary of the method: as §1

[11] = target: Fuc(a1-2)Gal(b1-4)[Fuc(a1-3)]GlcNAc(b1-3)Gal(b1-4)[Fuc(a1-3)]GlcNAc(b1-3)Gal(b1-4)[Fuc(a1-3)]GlcNAc
Summary of the method: as §1

[12] = target: Fuc(a1-2)Gal(b1-4)[Fuc(a1-3)]GlcNAc(b1-3)GalNAc
Summary of the method: as §1

[13] = target: Fuc(a1-2)Gal(b1-4)[Fuc(a1-3)]GlcNAc(b1-3)[Neu5Ac(a2-6)Gal(b1-4)GlcNAc(b1-6)]Gal(b1-4)Glc
Summary of the method: as §1

[14] = target: Fuc(a1-2)Gal3S(b1-4)GlcNAc
Summary of the method: as §1

[15] = target: Fuc(a1-2)Gal6S(b1-3)GlcNAc
Summary of the method: as §1

[16] = target: Fuc(a1-2)Gal6S(b1-3)GlcNAc6S
Summary of the method: as §1

Fuc(a1-2)Gal6S(b1-4)Glc = target: Fuc(a1-2)Gal6S(b1-4)Glc
Summary of the method: as §1

[17] = target: Fuc(a1-2)Gal6S(b1-4)Glc6S
Summary of the method: as §1

Fuc(a1-2)[Gal(a1-3)]Gal = target: Fuc(a1-2)[Gal(a1-3)]Gal
Summary of the method: as §1

[18] = target: Fuc(a1-2)[Gal(a1-3)]Gal(b1-3)GalNAc
Summary of the method: as §1

[19] = target: Fuc(a1-2)[Gal(a1-3)]Gal(b1-3)GalNAc(b1-3)Gal(a1-4)Gal(b1-4)Glc
Summary of the method: as §1

[20] = target: Fuc(a1-2)[Gal(a1-3)]Gal(b1-3)GlcNAc
Summary of the method: as §1

[21] = target: Fuc(a1-2)[Gal(a1-3)]Gal(b1-3)GlcNAc(b1-2)Man(a1-3)[Fuc(a1-2)[Gal(a1-3)]Gal(b1-3)GlcNAc(b1-2)Man(a1-6)]Man(b1-4)GlcNAc(b1-4)GlcNAc
Summary of the method: as §1

[22] = target: Fuc(a1-2)[Gal(a1-3)]Gal(b1-3)GlcNAc(b1-2)Man(a1-3)[Fuc(a1-2)[Gal(a1-3)]Gal(b1-3)GlcNAc(b1-2)Man(a1-6)]Man(b1-4)GlcNAc(b1-4)[Fuc(a1-6)]GlcNAc
Summary of the method: as §1

[23] = target: Fuc(a1-2)[Gal(a1-3)]Gal(b1-3)GlcNAc(b1-3)GalNAc
Summary of the method: as §1

[24] = target: Fuc(a1-2)[Gal(a1-3)]Gal(b1-3)GlcNAc(b1-6)GalNAc
Summary of the method: as §1

[25] = target: Fuc(a1-2)[Gal(a1-3)]Gal(b1-4)Glc
Summary of the method: as §1

[26] = target: Fuc(a1-2)[Gal(a1-3)]Gal(b1-4)GlcNAc
Summary of the method: as §1

[27] = target: Fuc(a1-2)[Gal(a1-3)]Gal(b1-4)GlcNAc(b1-2)Man
Summary of the method: as §1

[28] = target: Fuc(a1-2)[Gal(a1-3)]Gal(b1-4)GlcNAc(b1-2)Man(a1-3)[Fuc(a1-2)[Gal(a1-3)]Gal(b1-4)GlcNAc(b1-2)Man(a1-6)]Man(b1-4)GlcNAc(b1-4)GlcNAc
Summary of the method: as §1

[29] = target: Fuc(a1-2)[Gal(a1-3)]Gal(b1-4)GlcNAc(b1-2)Man(a1-3)[Fuc(a1-2)[Gal(a1-3)]Gal(b1-4)GlcNAc(b1-2)Man(a1-6)]Man(b1-4)GlcNAc(b1-4)[Fuc(a1-6)]GlcNAc
Summary of the method: as §1

[30] = target: Fuc(a1-2)[Gal(a1-3)]Gal(b1-4)GlcNAc(b1-3)GalNAc
Summary of the method: as §1

[31] = target: Fuc(a1-2)[Gal(a1-3)]Gal(b1-4)GlcNAc(b1-3)[Fuc(a1-2)[Gal(a1-3)]Gal(b1-4)GlcNAc(b1-6)]GalNAc
Summary of the method: as §1

[32] = target: Fuc(a1-2)[Gal(a1-3)]Gal(b1-4)GlcNAc(b1-6)GalNAc
Summary of the method: as §1

[33] = target: Fuc(a1-2)[Gal(a1-3)]Gal(b1-4)[Fuc(a1-3)]Glc
Summary of the method: as §1

[34] = target: Fuc(a1-2)[Gal(a1-3)]Gal(b1-4)[Fuc(a1-3)]GlcNAc
Summary of the method: as §1

[35] = target: Fuc(a1-2)[Gal(a1-3)]Gal(b1-4)[Fuc(a1-3)]GlcNAc(b1-3)GalNAc
Summary of the method: as §1

B1: Cohesin-hMARCO (Homo sapiens) (protein)
chain: LDDLDAVRIKVDTVNAKPGDTVRIPVRFSGIPSKGIANCDFVYSYDPNVLEIIEIEPGDIIVDPNPDKSFDTAVYPDRKIIVFLFAEDSGTGAYAITKDGVFATIVAKVKEGAPNGLSVIKFVEVGGFANNDLVEQKTQFFDGGANVGDTTEPATPTTPVTTPTTTDDLDAASVRIVGSSNRGRAEVYYSGTWGTICDDEWQNSDAIVFCRMLGYSKGRALYKVGAGTGQIWLDNVQCRGTESTLWSCTKNSWGHHDCSHEEDAGVECSVHHHHHH
glycan array binding signal (z-score) [1]: -0.436
glycan array binding signal (z-score) [2]: -0.546
glycan array binding signal (z-score) [3]: 0.864
glycan array binding signal (z-score) [4]: -0.587
glycan array binding signal (z-score) [5]: 0.573
glycan array binding signal (z-score) [6]: -0.275
glycan array binding signal (z-score) [7]: 0.133
glycan array binding signal (z-score) [8]: -0.305
glycan array binding signal (z-score) [9]: -0.399
glycan array binding signal (z-score) [10]: -0.45
glycan array binding signal (z-score) [11]: -0.444
glycan array binding signal (z-score) [12]: 0.242
glycan array binding signal (z-score) [13]: -0.448
glycan array binding signal (z-score) [14]: -0.259
glycan array binding signal (z-score) [15]: -0.258
glycan array binding signal (z-score) [16]: 0.012
glycan array binding signal (z-score) (Fuc(a1-2)Gal6S(b1-4)Glc): -0.237
glycan array binding signal (z-score) [17]: -0.072
glycan array binding signal (z-score) (Fuc(a1-2)[Gal(a1-3)]Gal): -0.225
glycan array binding signal (z-score) [18]: -0.378
glycan array binding signal (z-score) [19]: -0.528
glycan array binding signal (z-score) [20]: 2.72
glycan array binding signal (z-score) [21]: -0.576
glycan array binding signal (z-score) [22]: -0.466
glycan array binding signal (z-score) [23]: -0.028
glycan array binding signal (z-score) [24]: 0.474
glycan array binding signal (z-score) [25]: 0.265
glycan array binding signal (z-score) [26]: 0.089
glycan array binding signal (z-score) [27]: -0.167
glycan array binding signal (z-score) [28]: -0.358
glycan array binding signal (z-score) [29]: 0.522
glycan array binding signal (z-score) [30]: -0.45
glycan array binding signal (z-score) [31]: -0.382
glycan array binding signal (z-score) [32]: -0.528
glycan array binding signal (z-score) [33]: -0.198
glycan array binding signal (z-score) [34]: 0.015
glycan array binding signal (z-score) [35]: -0.472
